Measured values reported in patent US20260200947A1, “FUSED CYCLIC COMPOUNDS AND USE THEREOF” (Jacobio Pharmaceuticals Co., Ltd., priority 2022, published 2026).

Tests used:
[1] = system: AsPC-1 cells (K-Ras G12D)

For `C#Cc1c(F)ccc2cc(N)cc(-c3nc4c5c(nc(OC[C@@]67CCCN6C[C@H](F)C7)nc5c3F)N3CC5(CC5)COCC3N4C)c12` (some centres unmarked) [Compound 97], which IC50 [1] is on record?
Its IC50 is 338 nM.

What about the IC50 (SW620 cells (K-Ras G12V)) of the same compound?
Its IC50 is 82.9 nM.
